Experimental findings from the supplement of paper PMC12067093, “Discovery and optimisation of a covalent ligand for TRIM25 and its application to targeted protein ubiquitination” (Chemical Science, 2025) are described below.

Compound in the test: CC1Cc2ccccc2N1C(=O)C1CCCN(C1)C(=O)CCl (mixture of isomers) [TRIM25 ligand 11 (diastereomer mixture)]
Put plainly: probe-labelled cysteine peptide fold change vs DMSO (competition) (log2 fold change); higher = less target engagement (more negative = stronger competition). As to conditions: THP-1, incubation time: 4 h.

Targets with the largest changes are over-represented here; the source holds about 21,000 in all.
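Further: competitive chemoproteomic profiling in live THP-1 cells with an iodoacetamide desthiobiotin (IA-DTB) probe, comparing probe-labelled peptide intensities in compound-treated cells against DMSO-treated controls.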

Chain of UniProt Q9NQ55 (Q9NQ55 whole entry): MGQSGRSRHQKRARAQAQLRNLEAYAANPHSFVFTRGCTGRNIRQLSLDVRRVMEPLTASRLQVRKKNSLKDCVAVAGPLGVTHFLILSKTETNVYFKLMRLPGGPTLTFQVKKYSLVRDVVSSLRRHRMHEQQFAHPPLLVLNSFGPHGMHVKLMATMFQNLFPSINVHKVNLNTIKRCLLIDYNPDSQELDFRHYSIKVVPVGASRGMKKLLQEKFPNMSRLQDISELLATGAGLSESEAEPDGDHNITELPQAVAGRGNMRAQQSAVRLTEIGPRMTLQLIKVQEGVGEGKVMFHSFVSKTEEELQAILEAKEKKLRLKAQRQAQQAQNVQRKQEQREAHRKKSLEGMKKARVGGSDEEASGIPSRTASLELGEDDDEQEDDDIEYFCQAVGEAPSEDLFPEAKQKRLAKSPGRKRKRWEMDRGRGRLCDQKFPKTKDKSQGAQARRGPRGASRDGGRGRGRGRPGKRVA
Chain of UniProt P50897 (P50897 whole entry, looked up): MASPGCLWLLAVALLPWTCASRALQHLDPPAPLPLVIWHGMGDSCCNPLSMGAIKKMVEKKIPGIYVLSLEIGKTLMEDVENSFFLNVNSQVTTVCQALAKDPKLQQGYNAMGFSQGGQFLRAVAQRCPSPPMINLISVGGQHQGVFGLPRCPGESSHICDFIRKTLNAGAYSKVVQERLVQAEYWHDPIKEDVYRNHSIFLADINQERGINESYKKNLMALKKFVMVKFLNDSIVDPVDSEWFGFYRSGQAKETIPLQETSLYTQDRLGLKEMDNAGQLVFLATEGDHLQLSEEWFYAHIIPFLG
Chain of UniProt Q9BRX2 (Q9BRX2 whole entry, looked up): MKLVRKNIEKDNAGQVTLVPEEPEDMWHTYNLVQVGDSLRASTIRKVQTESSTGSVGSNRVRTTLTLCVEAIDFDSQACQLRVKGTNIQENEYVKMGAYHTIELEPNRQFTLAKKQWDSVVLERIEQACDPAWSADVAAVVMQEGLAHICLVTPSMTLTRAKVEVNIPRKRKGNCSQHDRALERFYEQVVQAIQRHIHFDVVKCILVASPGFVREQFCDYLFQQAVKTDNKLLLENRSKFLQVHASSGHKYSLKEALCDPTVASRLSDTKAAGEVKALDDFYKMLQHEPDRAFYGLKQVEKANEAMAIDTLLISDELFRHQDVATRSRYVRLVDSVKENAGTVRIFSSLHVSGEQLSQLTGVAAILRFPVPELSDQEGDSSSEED
Chain of UniProt P14314 (P14314 whole entry, looked up): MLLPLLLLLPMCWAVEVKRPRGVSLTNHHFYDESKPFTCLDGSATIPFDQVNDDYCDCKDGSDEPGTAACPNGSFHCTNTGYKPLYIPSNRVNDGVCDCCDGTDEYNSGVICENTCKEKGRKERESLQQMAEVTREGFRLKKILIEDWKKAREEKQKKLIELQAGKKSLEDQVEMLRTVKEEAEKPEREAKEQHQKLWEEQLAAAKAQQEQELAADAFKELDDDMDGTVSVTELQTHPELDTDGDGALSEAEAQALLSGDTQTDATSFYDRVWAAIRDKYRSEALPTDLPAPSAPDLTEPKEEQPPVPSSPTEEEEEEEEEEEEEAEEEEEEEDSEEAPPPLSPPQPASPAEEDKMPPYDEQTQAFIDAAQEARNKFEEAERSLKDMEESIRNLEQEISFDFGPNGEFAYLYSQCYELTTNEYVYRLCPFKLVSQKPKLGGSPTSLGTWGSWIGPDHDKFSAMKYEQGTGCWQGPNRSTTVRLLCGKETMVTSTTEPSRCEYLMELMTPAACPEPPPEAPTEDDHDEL
Chain of UniProt O43447 (O43447 whole entry, looked up): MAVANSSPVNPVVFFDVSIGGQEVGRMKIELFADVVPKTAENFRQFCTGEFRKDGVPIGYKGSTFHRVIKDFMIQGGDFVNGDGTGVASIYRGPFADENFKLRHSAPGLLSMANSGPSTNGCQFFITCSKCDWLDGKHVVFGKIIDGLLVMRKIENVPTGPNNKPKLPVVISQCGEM
Chain of UniProt Q9UMS4 (Q9UMS4 whole entry, looked up): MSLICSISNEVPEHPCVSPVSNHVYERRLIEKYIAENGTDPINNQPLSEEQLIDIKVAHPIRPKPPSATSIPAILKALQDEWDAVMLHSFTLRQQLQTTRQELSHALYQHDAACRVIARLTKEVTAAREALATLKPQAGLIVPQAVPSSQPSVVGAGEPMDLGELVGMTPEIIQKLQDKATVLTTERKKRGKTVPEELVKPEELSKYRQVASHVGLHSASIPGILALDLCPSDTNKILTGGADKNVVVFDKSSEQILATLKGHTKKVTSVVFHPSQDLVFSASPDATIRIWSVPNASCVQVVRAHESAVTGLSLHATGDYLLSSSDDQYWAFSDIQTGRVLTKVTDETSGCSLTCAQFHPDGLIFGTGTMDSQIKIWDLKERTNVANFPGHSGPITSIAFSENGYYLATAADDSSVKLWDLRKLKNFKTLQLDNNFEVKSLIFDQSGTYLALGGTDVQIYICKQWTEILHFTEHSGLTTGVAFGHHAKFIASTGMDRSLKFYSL
Chain of UniProt Q15165 (Q15165 whole entry, looked up): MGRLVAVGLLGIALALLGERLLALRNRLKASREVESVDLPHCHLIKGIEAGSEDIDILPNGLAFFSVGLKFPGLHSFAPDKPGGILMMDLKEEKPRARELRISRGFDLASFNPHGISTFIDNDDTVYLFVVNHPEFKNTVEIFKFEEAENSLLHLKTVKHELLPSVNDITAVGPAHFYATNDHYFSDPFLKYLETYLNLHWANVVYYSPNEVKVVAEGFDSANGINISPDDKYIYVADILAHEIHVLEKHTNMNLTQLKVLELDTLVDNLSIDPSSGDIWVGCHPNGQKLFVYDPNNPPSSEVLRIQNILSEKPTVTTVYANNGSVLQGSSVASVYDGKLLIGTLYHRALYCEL
Chain of UniProt Q15054 (Q15054 whole entry, looked up): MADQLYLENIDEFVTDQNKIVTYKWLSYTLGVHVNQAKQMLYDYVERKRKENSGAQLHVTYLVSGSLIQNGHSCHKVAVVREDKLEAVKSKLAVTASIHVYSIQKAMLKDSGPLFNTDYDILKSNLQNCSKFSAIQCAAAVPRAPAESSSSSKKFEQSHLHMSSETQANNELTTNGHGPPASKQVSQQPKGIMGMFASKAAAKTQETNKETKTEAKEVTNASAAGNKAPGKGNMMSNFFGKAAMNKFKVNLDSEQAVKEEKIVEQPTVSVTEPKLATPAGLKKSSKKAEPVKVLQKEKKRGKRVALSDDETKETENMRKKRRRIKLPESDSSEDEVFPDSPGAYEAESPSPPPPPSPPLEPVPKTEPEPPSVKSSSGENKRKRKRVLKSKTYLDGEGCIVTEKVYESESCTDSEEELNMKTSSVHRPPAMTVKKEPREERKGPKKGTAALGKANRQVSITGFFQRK
Chain of UniProt Q93100 (Q93100 whole entry, looked up): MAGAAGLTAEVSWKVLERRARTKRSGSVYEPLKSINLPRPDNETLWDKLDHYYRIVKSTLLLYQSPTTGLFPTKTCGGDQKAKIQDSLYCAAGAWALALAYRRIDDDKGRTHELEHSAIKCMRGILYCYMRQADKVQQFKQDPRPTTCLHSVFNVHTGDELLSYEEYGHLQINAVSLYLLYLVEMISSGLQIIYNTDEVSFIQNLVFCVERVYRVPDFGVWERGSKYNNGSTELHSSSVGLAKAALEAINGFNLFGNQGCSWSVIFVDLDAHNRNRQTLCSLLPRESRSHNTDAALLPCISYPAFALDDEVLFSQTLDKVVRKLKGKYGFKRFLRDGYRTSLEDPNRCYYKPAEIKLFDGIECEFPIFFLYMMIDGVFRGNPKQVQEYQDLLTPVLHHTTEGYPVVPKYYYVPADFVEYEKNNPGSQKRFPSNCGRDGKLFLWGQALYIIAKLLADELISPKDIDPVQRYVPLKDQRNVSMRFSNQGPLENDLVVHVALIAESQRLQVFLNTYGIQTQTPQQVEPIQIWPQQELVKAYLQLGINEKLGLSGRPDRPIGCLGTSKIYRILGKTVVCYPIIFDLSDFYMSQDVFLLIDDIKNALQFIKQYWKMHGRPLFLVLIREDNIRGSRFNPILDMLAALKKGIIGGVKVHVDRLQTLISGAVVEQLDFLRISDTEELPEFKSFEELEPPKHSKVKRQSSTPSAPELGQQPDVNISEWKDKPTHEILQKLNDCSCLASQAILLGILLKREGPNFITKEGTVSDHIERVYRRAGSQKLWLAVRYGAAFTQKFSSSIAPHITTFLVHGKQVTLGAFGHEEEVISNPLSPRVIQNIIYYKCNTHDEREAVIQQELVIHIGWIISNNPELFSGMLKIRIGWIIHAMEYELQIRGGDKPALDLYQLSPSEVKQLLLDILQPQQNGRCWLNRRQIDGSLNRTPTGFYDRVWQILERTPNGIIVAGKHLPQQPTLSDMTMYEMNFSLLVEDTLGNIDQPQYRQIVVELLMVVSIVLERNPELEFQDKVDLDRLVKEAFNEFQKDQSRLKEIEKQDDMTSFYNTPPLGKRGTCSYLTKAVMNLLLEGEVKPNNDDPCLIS
Chain of UniProt Q7RTV0 (Q7RTV0 whole entry, looked up): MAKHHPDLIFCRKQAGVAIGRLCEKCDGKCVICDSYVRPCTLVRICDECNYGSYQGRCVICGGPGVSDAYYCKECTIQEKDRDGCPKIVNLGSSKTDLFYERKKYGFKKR
Chain of UniProt Q9UP65 (Q9UP65 whole entry): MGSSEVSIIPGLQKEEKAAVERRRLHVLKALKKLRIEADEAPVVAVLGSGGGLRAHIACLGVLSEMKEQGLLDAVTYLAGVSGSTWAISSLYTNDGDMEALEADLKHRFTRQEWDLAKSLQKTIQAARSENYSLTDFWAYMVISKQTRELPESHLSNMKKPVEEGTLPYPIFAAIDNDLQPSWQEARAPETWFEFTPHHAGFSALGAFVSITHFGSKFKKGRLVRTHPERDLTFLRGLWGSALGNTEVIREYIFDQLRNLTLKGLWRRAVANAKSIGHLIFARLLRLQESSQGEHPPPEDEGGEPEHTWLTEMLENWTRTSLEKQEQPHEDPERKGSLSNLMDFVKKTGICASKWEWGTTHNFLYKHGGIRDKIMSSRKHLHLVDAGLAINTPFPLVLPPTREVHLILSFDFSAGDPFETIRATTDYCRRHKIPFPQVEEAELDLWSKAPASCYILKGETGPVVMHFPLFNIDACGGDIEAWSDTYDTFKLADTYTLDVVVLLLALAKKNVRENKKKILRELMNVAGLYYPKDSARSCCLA

Turning to “PHIP_Q8WWQ0_522_CSPDGQHFACTDSHGHLLIFGFGSSSK (UniProt Q8WWQ0)”, the “probe-labelled cysteine peptide fold change” value is, setting by setting: (10 µM) 0.0707; (50 µM) 0.0548.
Take “POLD3_Q15054_398_TYLDGEGCIVTEK (UniProt Q15054)”: the “probe-labelled cysteine peptide fold change” value by setting is: (10 µM) -0.187; (50 µM) 0.0619.
Consider “PLD4_Q96BZ4_313_FQPFHGLFDGVPTTAYFSASPPALCPQGR (UniProt Q96BZ4)”, for which the “probe-labelled cysteine peptide fold change” value was -0.3 (10 µM) and -0.836 (50 µM).
For “PPT1_P50897_152_CPGESSHICDFIRK (UniProt P50897)”, the “probe-labelled cysteine peptide fold change” value is, setting by setting: (10 µM) -0.116; (50 µM) -0.113.
The like results for “PPP6R3_Q5H9R7_216_HSNASQSLCEIVR (UniProt Q5H9R7)” were, in that order, 0.0678 and -0.153.
Turning to “PFAS_O15067_108_LNFSTPTSTNIVSVCR (UniProt O15067)”, the “probe-labelled cysteine peptide fold change” value reads like this: (10 µM) 0.148; (50 µM) 0.224.
With “PHKB_Q93100-2_3_ACSPDAVVSPSSAFLR (UniProt Q93100)”, the “probe-labelled cysteine peptide fold change” value by setting is: (10 µM) -0.519; (50 µM) -0.434.
In the case of “PLA2G4C_Q9UP65_351_KTGICASK (UniProt Q9UP65)”, the “probe-labelled cysteine peptide fold change” value (10 µM) was -0.00842 and the “probe-labelled cysteine peptide fold change” value (50 µM) is -0.032.
With “PRXL2A_Q9BRX8_88_RPGCFLCR (UniProt Q9BRX8)”, the “probe-labelled cysteine peptide fold change” value runs as follows: (10 µM) -2.16; (50 µM) -2.01.
The matching figures for “POP1_Q99575_481_KPDSVSLHCR (UniProt Q99575)”: 0.0851 and 0.0924.
Take “PHF2_O75151_50_DWFHGSCVGVEEEEAPDIDIYHCPNCEK (UniProt O75151)”: the “probe-labelled cysteine peptide fold change” value runs as follows: (10 µM) -0.131; (50 µM) -0.185.
In the case of “PNPO_Q9NVS9_156_KLPEEEAECYFHSR (UniProt Q9NVS9)”, the “probe-labelled cysteine peptide fold change” value (10 µM) is 0.0359 and the “probe-labelled cysteine peptide fold change” value (50 µM) was -0.0161.
On to “PPIH_O43447_174_LPVVISQCGEM (UniProt O43447)”, for which the “probe-labelled cysteine peptide fold change” value is -0.0812 (10 µM) and -0.166 (50 µM).
As for “PLEKHA2_Q9HB19_228_FFALDDFTICYFK (UniProt Q9HB19)”, the “probe-labelled cysteine peptide fold change” value (10 µM) stood at 0.34 and the “probe-labelled cysteine peptide fold change” value (50 µM) was -0.203.
As for “PON2_Q15165_283_VLELDTLVDNLSIDPSSGDIWVGCHPNGQK (UniProt Q15165)”, the “probe-labelled cysteine peptide fold change” value runs as follows: (10 µM) 0.0993; (50 µM) 0.0969.
For “PELO_Q9BRX2_175_GNCSQHDR (UniProt Q9BRX2)”, the “probe-labelled cysteine peptide fold change” value (10 µM) is 0.379 and the “probe-labelled cysteine peptide fold change” value (50 µM) is 0.165.
In the case of “PRKCD_Q05655_127_VLMSVQYFLEDVDCK (UniProt Q05655)”, the “probe-labelled cysteine peptide fold change” value by setting is: (10 µM) -0.0426; (50 µM) -0.198.
With “PPIL3_Q9H2H8_25_TCENFLALCASNYYNGCIFHR (UniProt Q9H2H8)”, the “probe-labelled cysteine peptide fold change” value was -0.31 (10 µM) and -0.139 (50 µM).
“PPAN_Q9NQ55_73_DCVAVAGPLGVTHFLILSK (UniProt Q9NQ55)”: the “probe-labelled cysteine peptide fold change” value is, setting by setting: (10 µM) -0.0887; (50 µM) 0.217.
Regarding “POLR2A_P24928_71_CQTCAGNMTECPGHFGHIELAK (UniProt P24928)”, the “probe-labelled cysteine peptide fold change” value is -0.199 (10 µM) and -0.159 (50 µM).
The like results for “PFKFB3_Q16875_102_KQCALAALR (UniProt Q16875)” were, in that order, -0.148 and -0.24.
“PNKP_Q96T60_353_SGPLCLPESR (UniProt Q96T60)”: the “probe-labelled cysteine peptide fold change” value runs as follows: (10 µM) -0.182; (50 µM) -0.149.
For “PFN1_P07737_128_CYEMASHLRR (UniProt P07737)”, the “probe-labelled cysteine peptide fold change” value reads like this: (10 µM) -0.732; (50 µM) -0.452.
On to “PPP2R5C_Q13362_49_QCCVLFDFVSDPLSDLK (UniProt Q13362)”, for which the “probe-labelled cysteine peptide fold change” value was -0.119 (10 µM) and 0.0246 (50 µM).
On to “POLD1_P28340_1058_LWTQCQR (UniProt P28340)”, for which the “probe-labelled cysteine peptide fold change” value was -0.0348 (10 µM) and 0.291 (50 µM).
The matching figures for “PML_P29590_479+484_CSQTQCPR (UniProt P29590)”: -0.122 and -0.364.
Consider “PRKCD_Q05655_459_ATFYAAEIMCGLQFLHSK (UniProt Q05655)”, for which the “probe-labelled cysteine peptide fold change” value reads like this: (10 µM) 0.102; (50 µM) 0.299.
As for “PHF5A_Q7RTV0_30+40_CVICDSYVRPCTLVR (UniProt Q7RTV0)”, the “probe-labelled cysteine peptide fold change” value is, setting by setting: (10 µM) -0.054; (50 µM) 0.00899.
For the target “PFKL_P17858_708_VFANAPDSACVIGLK (UniProt P17858)”, the “probe-labelled cysteine peptide fold change” value reads like this: (10 µM) 0.138; (50 µM) -0.0211.
As to “PLPP6_Q8IY26_55_ATAVDPTCAR (UniProt Q8IY26)”, the “probe-labelled cysteine peptide fold change” value is, setting by setting: (10 µM) 0.0708; (50 µM) -0.177.
In the case of “PRPF19_Q9UMS4_5+16_SLICSISNEVPEHPCVSPVSNHVYER (UniProt Q9UMS4)”, the “probe-labelled cysteine peptide fold change” value runs as follows: (10 µM) -0.217; (50 µM) -0.792.
As for “PPM1G_O15355_241_GTEAGQVGEPGIPTGEAGPSCSSASDK (UniProt O15355)”, the “probe-labelled cysteine peptide fold change” value runs as follows: (10 µM) 0.0659; (50 µM) -0.175.
Regarding PDXK_O00764_5_MEEECR (UniProt O00764), the “probe-labelled cysteine peptide fold change” value (10 µM) is 0.156 and the “probe-labelled cysteine peptide fold change” value (50 µM) is 0.121.
“PFKFB3_Q16875_387_LEPVIMELERQENVLVICHQAVLR (UniProt Q16875)”: the “probe-labelled cysteine peptide fold change” value was 0.0402 (10 µM) and 0.0398 (50 µM).
With “PLCG2_P16885_624_CAEFELR (UniProt P16885)”, the “probe-labelled cysteine peptide fold change” value reads like this: (10 µM) 0.0558; (50 µM) 0.0418.
In the case of “PRKCSH_P14314_56_GVSLTNHHFYDESKPFTCLDGSATIPFDQVNDDYCDCK (UniProt P14314)”, the “probe-labelled cysteine peptide fold change” value runs as follows: (10 µM) -0.413; (50 µM) -0.592.
